Tests used:
C. albicans = test: Peptide or protein/Fluconazole combination, MIC and FICI; conditions: Full Length MtDef4 Protein/Fluconazole combination
C. glabrata = test: as above; conditions: Full Length MtDef4 Protein/Fluconazole combination

**Q.** For `OC(Cn1cncn1)(Cn1cncn1)c1ccc(F)cc1F` [Fluconazole], which “MIC in combination (μM)” value (C. albicans) is on record?
**A.** The value was 6.45 µM.

**Q.** What about the “MIC in combination μg/ml” value (C. albicans) of the same molecule?
**A.** Its value is 2 µg/mL.

**Q.** And the “MIC in combination” value (C. glabrata)?
**A.** Its value is 206 µM.
